No constants are given. Whether binding was seen depends on the method and setting. For part of these data: In cells and extracts the contact can be indirect. Some entries that bind do so weakly or less than the wild type.
T1: Rab4 (endogenous, melanocytes) (mouse (endogenous in melan-Ink melanocytes)) (UniProt P56371)
T1 sequence: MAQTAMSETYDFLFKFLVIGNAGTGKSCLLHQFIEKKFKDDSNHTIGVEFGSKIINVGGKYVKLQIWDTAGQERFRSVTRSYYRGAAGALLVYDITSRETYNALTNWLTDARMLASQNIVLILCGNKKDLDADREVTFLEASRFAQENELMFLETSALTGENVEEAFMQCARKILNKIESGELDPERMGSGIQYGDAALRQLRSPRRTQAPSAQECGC

T2: rabaptin-5 (endogenous, melanocytes) (mouse (endogenous in melan-Ink melanocytes)) (UniProt O35551)
T2 sequence: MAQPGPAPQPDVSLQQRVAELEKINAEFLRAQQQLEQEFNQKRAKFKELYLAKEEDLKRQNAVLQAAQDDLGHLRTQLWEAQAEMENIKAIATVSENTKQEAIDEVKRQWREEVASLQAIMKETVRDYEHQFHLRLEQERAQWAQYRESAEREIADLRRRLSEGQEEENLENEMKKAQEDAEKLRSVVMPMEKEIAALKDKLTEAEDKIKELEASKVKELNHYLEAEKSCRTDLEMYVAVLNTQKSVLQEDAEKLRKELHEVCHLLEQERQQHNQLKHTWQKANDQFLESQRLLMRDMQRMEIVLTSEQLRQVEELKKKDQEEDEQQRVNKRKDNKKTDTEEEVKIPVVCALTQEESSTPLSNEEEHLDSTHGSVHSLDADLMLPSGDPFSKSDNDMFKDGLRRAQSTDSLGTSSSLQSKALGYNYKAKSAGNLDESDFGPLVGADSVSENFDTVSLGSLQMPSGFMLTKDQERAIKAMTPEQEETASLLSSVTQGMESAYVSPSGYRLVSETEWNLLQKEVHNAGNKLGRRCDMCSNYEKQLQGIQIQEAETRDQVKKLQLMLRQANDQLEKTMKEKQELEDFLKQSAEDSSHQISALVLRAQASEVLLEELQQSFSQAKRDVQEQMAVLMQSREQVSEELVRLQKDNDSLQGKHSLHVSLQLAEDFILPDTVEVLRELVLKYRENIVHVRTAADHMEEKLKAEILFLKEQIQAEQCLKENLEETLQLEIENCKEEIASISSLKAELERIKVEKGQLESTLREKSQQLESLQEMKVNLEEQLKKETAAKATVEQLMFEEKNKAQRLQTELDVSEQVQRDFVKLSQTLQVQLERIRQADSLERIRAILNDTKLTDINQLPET

T3: hPMEL^623-668 (human) (UniProt P40967)
T3 sequence: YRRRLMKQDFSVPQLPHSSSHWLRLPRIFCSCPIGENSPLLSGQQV

B1: KIF3B (endogenous, melanocytes) (protein, UniProt Q61771 1-747)
chain: MSKLKSSESVRVVVRCRPMNGKEKAASYDKVVDVDVKLGQVSVKNPKGTSHEMPKTFTFDAVYDWNAKQFELYDETFRPLVDSVLQGFNGTIFAYGQTGTGKTYTMEGVRGDPEKRGVIPNSFDHIFTHISRSQNQQYLVRASYLEIYQEEIRDLLSKDQTKRLELKERPDTGVYVKDLSSFVTKSVKEIEHVMNVGNQNRSVGATNMNEHSSRSHAIFVITIECSEVGLDGENHIRVGKLNLVDLAGSERQAKTGAQGERLKEATKINLSLSALGNVISALVDGKSTHIPYRDSKLTRLLQDSLGGNAKTVMVANVGPASYNVEETLTTLRYANRAKNIKNKPRVNEDPKDALLREFQEEIARLKAQLEKRSIGRRKRREKRREGGGSGGGGEEEEEEGEEGEEDGDDKDDYWREQQEKLEIEKRAIVEDHSLVAEEKMRLLKEKEKKMEDLRREKDAAEMLGAKIKAMESKLLVGGKNIVDHTNEQQKILEQKRQEIAEQKRREREIQQQMESRDEETLELKETYTSLQQEVDIKTKKLKKLFSKLQAVKAEIHDLQEEHIKERQELEQTQNELTRELKLKHLIIENFIPLEEKNKIMNRSFFDDEEDHWKLHPITRLENQQMMKRPVSAVGYKRPLSQHARMSMMIRPEPRYRAENIMLLELDMPSRTTRDYEGPAISPKVQAALDAALQDEDEIQVDASSFESTASRKPKARPKSGRKSGSSSSSSGNPASQFYPQSRGLVPK
B2: Rab4 (endogenous, melanocytes) (protein, UniProt P56371 1-218)
chain: T1 sequence
B3: rabenosyn-5 (endogenous, melanocytes) (protein, UniProt Q80Y56 1-783)
chain: MASLDDPGEVREGFLCPLCLKDLQSFYQLQSHYEEEHLEDRDVKGQIKNLVQKARKAKNKLLKREGDDRVEPGTQGYESFSYGGVDPYMWEPQELGAMRSHLSDFKKHRAARIDHYVVEVNKLIIRLEKLTAFDRTNTETSKIRAIEKSVVPWVNDQDVPFCPDCGNKFSIRNRRHHCRLCGSIMCKKCMELIGLPLAHKLTSASKDSLSTHTSPSQSPNSVHGSRRGSISSMSSVSSVLDEKDDDRIRCCTHCKDKLLKREQQMDEKEHTPDIVKLYEKLRLCMEKVDQKAPEYIRMAASLNAGETTYNLEHANDLRVEVQKVYELIDALSKKILTLGLNQDPSPHPNTLRLQRMIRYSATLFVQEKLLGLMSLPTKEQFEELKKKRKQDLEQKRTVERQAALESRRKLEERQSGLASHTANGDVRSLRGIPPPLRKAEGWLPLSEGQGQSEDPDPLLQQIYNITSFIRQAKAAGRTDEVRTLQENLRQLQDEYDQQQTEKAIELSRKQAEEEELQREQLQMLRKRELEREQEQFLAASLQTRTRVLELREVIPFQLEASRGPHIDLSYSLDQDSSPVQSSTAPDILTPGSALAPMHLWSGPPALGQETLPQSTMSQQSDKASLNPFDEDDLSSPTEGAISPAAVEAFLGPPAAVTKEYNPFEEDAEEEEVAELGAGNPFTDPDSPAPNPFDEDDGPRPASPAAPGNPFEECPSTNPFEVDSDSGMEAEEHIEEELLLQQIDNIKAYIFDAKQCGRMDEVEVLTENLRELKCTLAKQKGAPN
B4: AP-3 δ subunit (yeast two-hybrid) (protein, UniProt O14617 1-1153)
chain: MALKMVKGSIDRMFDKNLQDLVRGIRNHKEDEAKYISQCIDEIKQELKQDNIAVKANAVCKLTYLQMLGYDISWAAFNIIEVMSASKFTFKRIGYLAASQSFHEGTDVIMLTTNQIRKDLSSPSQYDTGVALTGLSCFVTPDLARDLANDIMTLMSHTKPYIRKKAVLIMYKVFLKYPESLRPAFPRLKEKLEDPDPGVQSAAVNVICELARRNPKNYLSLAPLFFKLMTSSTNNWVLIKIIKLFGALTPLEPRLGKKLIEPLTNLIHSTSAMSLLYECVNTVIAVLISLSSGMPNHSASIQLCVQKLRILIEDSDQNLKYLGLLAMSKILKTHPKSVQSHKDLILQCLDDKDESIRLRALDLLYGMVSKKNLMEIVKKLMTHVDKAEGTTYRDELLTKIIDICSQSNYQYITNFEWYISILVELTRLEGTRHGHLIAAQMLDVAIRVKAIRKFAVSQMSALLDSAHLLASSTQRNGICEVLYAAAWICGEFSEHLQEPHHTLEAMLRPRVTTLPGHIQAVYVQNVVKLYASILQQKEQAGEAEGAQAVTQLMVDRLPQFVQSADLEVQERASCILQLVKHIQKLQAKDVPVAEEVSALFAGELNPVAPKAQKKVPVPEGLDLDAWINEPLSDSESEDERPRAVFHEEEQRRPKHRPSEADEEELARRREARKQEQANNPFYIKSSPSPQKRYQDTPGVEHIPVVQIDLSVPLKVPGLPMSDQYVKLEEERRHRQKLEKDKRRKKRKEKEKKGKRRHSSLPTESDEDIAPAQQVDIVTEEMPENALPSDEDDKDPNDPYRALDIDLDKPLADSEKLPIQKHRNTETSKSPEKDVPMVEKKSKKPKKKEKKHKEKERDKEKKKEKEKKKSPKPKKKKHRKEKEERTKGKKKSKKQPPGSEEAAGEPVQNGAPEEEQLPPESSYSLLAENSYVKMTCDIRGSLQEDSQVTVAIVLENRSSSILKGMELSVLDSLNARMARPQGSSVHDGVPVPFQLPPGVSNEAQYVFTIQSIVMAQKLKGTLSFIAKNDEGATHEKLDFRLHFSCSSYLITTPCYSDAFAKLLESGDLSMSSIKVDGIRMSFQNLLAKICFHHHFSVVERVDSCASMYSRSIQGHHVCLLVKKGENSVSVDGKCSDSTLLSNLLEEMKATLAKC
B5: AP-3 β3A subunit (yeast two-hybrid) (protein, UniProt O00203 1-1094)
chain: MSSNSFPYNEQSGGGEATELGQEATSTISPSGAFGLFSSDLKKNEDLKQMLESNKDSAKLDAMKRIVGMIAKGKNASELFPAVVKNVASKNIEIKKLVYVYLVRYAEEQQDLALLSISTFQRALKDPNQLIRASALRVLSSIRVPIIVPIMMLAIKEASADLSPYVRKNAAHAIQKLYSLDPEQKEMLIEVIEKLLKDKSTLVAGSVVMAFEEVCPDRIDLIHKNYRKLCNLLVDVEEWGQVVIIHMLTRYARTQFVSPWKEGDELEDNGKNFYESDDDQKEKTDKKKKPYTMDPDHRLLIRNTKPLLQSRNAAVVMAVAQLYWHISPKSEAGIISKSLVRLLRSNREVQYIVLQNIATMSIQRKGMFEPYLKSFYVRSTDPTMIKTLKLEILTNLANEANISTLLREFQTYVKSQDKQFAAATIQTIGRCATNILEVTDTCLNGLVCLLSNRDEIVVAESVVVIKKLLQMQPAQHGEIIKHMAKLLDSITVPVARASILWLIGENCERVPKIAPDVLRKMAKSFTSEDDLVKLQILNLGAKLYLTNSKQTKLLTQYILNLGKYDQNYDIRDRTRFIRQLIVPNVKSGALSKYAKKIFLAQKPAPLLESPFKDRDHFQLGTLSHTLNIKATGYLELSNWPEVAPDPSVRNVEVIELAKEWTPAGKAKQENSAKKFYSESEEEEDSSDSSSDSESESGSESGEQGESGEEGDSNEDSSEDSSSEQDSESGRESGLENKRTAKRNSKAKGKSDSEDGEKENEKSKTSDSSNDESSSIEDSSSDSESESEPESESESRRVTKEKEKKTKQDRTPLTKDVSLLDLDDFNPVSTPVALPTPALSPSLMADLEGLHLSTSSSVISVSTPAFVPTKTHVLLHRMSGKGLAAHYFFPRQPCIFGDKMVSIQITLNNTTDRKIENIHIGEKKLPIGMKMHVFNPIDSLEPEGSITVSMGIDFCDSTQTASFQLCTKDDCFNVNIQPPVGELLLPVAMSEKDFKKEQGVLTGMNETSAVIIAAPQNFTPSVIFQKVVNVANVGAVPSGQDNIHRFAAKTVHSGSLMLVTVELKEGSTAQLIINTEKTVIGSVLLRELKPVLSQG
B6: Rabip4 (endogenous, melanocytes) (protein, UniProt Q8BIJ7 1-712)
chain: MAARGECRRAGQDSEPEPEREPESEPGPEPEPQAGLESGEAFEIVDRSQLPSPGELRSASRPRVADSWSAPILTLARRATGNLSASCGSALRAAAGLGDGGGGGERAASKGQMMEERANLMHMMKLSIKVLLQSALSLGRSLDADYAPLQQFFVVMEHCLKHGLKVKKSFIGQNKSFFGPLELVEKLCPEASDIATSVRNLPELKTAVGRGRAWLYLALMQKKLADYLKVLIDNKQLLSEFYEPEALMMEEEGMVIVGLLVGLNVLDANLCLKGEDLDSQVGVIDFSLCLKDAQDLDSGREHERITDVLDQKNYVEELNRHLSCTVGDLQTKIDGLEKTNSKLQEELSAATDRICSLQKEQQQLREQNEVIRERSEKSVEITKQDTKVELETYKQTRQGLDEMYSDVWKQLKEEKKVRLELEKELELQIGMKTEMEIAMKLLEKDTHEKQDTLVALRQQLEEVKAINLQMFHKVQSAESSLQQKNEAIASFEGKTTQVMSSMKQMEERLQQAERARQAAEERSHKLQQELSGRGSALQLQLSQLRDQCSGLEKELKSEKEQRQALQRELQREKDTSCLLQTELQQVEGLKKELRELQDEKAELRKVCEEQEQALQEMGLHLSQSKLKMEDIKEVNKALKGHTWLKDDEATHCKQCEKDFSISRRKHHCRNCGHIFCNTCSSNELALPSYPKPVRVCDSCHTLLLQRCSSTAS

What was measured:
[1] = target: T1, Rab4 (endogenous, melanocytes) (mouse (endogenous in melan-Ink melanocytes)); assay: co-IP; endogenous Rab4 from melan-Ink melanocyte lysate, anti-Rab4 antibody and Protein G–Sepharose 4B beads overnight at 4°C; immunoblotting
[2] = target: T2, rabaptin-5 (endogenous, melanocytes) (mouse (endogenous in melan-Ink melanocytes)); assay: co-IP; endogenous rabaptin-5 from melan-Ink melanocyte lysate, anti-rabaptin-5 antibody and Protein G–Sepharose 4B beads overnight at 4°C; immunoblotting
[3] = target: T3, hPMEL^623-668 (human); assay: two-hybrid; Y2HGold yeast; cargo tails in pGBKT7 against AP-3 or AP-1 subunits; growth on −His (+2 or 10 mM 3AT) plates, 3–5 days at 30°C

Binder | binding [2] | binding [3] | further results
B1 |  |  | binding [1]: binds
B2 | binds |  | 
B3 | no binding |  | 
B4 |  | no binding | 
B5 |  | no binding | 
B6 | no binding |  | 
